# Screen size: about 420,000 compounds; about 50,000 (12%) were called active. The inconclusive results got no clear call from the source; some entries with a clear call stand among them for comparison. The call rests on the fitted dose curve; in most records, active means well fitted inhibition curve with a large enough effect; inconclusive means small, poorly fitted or top-dose-only effect; inactive means flat fitted curve, though single readings scatter. No potency is given beside an inconclusive call; the fits are too rough.
# Experiment: qHTS for Inhibitors of human tyrosyl-DNA phosphodiesterase 1 (TDP1): qHTS in cells in presence of CPT; further: nearly all actives have a fitted effect of over 55% in size
# Details: chicken DT40 Tdp1-/-;hTDP1 cells + 20 nM CPT, ATP luminescence, 48 h
# In short: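 Cell growth measured by CellTiter-Glo luminescence after a minimum 48 h, 37 C compound exposure with 20 nM CPT in Tdp1-knockout DT40 cells stably expressing hTDP1, seeded 400/well; qHTS titration format.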
# [1] = activity change, negative = growth inhibition: at 46.2 µM (top of the series) unless noted
# On the % scale 0 is the no-effect control and ±100 the full control effect; potency means the concentration at half of the fitted maximal effect; tags describe the fitted curve by direction and shape.
compound,measurement,setting,value
CC(O)CN(C)CC/C=C1/c2ccccc2CSc2ccccc21 (stereo unspecified),Potency,[1],"inconclusive [inhibitor, single point]"
Cc1ccc(OCc2cc(C(=O)N(C)Cc3cc(C4CC4)n[nH]3)no2)cc1C,Potency,[1],"inconclusive [inhibitor, single point]"
CCOC1(NC(=O)c2ccccc2)C(C)=CC(=O)C=C1C,Potency,[1],"inconclusive [inhibitor, single point]"
Cc1ccc(C)c(N2CCN(S(=O)(=O)c3ccc(-c4coc(C)n4)cc3)CC2)c1,Potency,[1],"inconclusive [inhibitor, single point]"
COc1ccc(/C(C)=N/NC(=O)c2ccccc2OCc2ccccc2)c(OC)c1,Potency,[1],"inconclusive [inhibitor, single point]"
CCOC(=O)c1sc(NN=C(C(=O)OC)C(=O)OC)c(C(=O)OCC)c1C,Potency,[1],"inconclusive [inhibitor, single point]"
CCCCc1c(C)nc2c(-c3ccc(Cl)cc3)c(C)[nH]n2c1=O,Potency,[1],active: 4.61 µM
COc1cc(C(O)c2nc(-c3ccc(C)c(C)c3)cs2)ccc1F (stereo unspecified),Potency,[1],"inconclusive [inhibitor, single point]"
Cc1ccc(S(=O)(=O)N(CC(=O)NCCSCc2ccco2)c2cc(C)ccc2C)cc1,Potency,[1],active: 15.8 µM
O=C(c1ccc(F)c(S(=O)(=O)N2CCOCC2)c1)N1CCc2ccccc21,Potency,[1],"inconclusive [inhibitor, single point]"
COc1cc2c(cc1[N+](=O)[O-])-c1ccc([N+](=O)[O-])cc1C2=NO,Potency,[1],active: 25.9 µM
CC(C)CN1CCC(=O)N(CCN=[N+]=[N-])CC1,"activity change, negative = growth inhibition",[1],inconclusive: -24.7% [inhibitor]
same,"activity change, negative = growth inhibition",at 46.2 µM (top of the series),inactive: 7.87%
CSc1ccc(C(c2c(C)[nH][nH]c2=O)c2c(C)[nH][nH]c2=O)cc1,"activity change, negative = growth inhibition",[1],inconclusive: -35.2% [inhibitor]
Cc1cc2c(C)nc3ccccc3c2o1,Potency,[1],inactive
CC(C)(C)NC(=O)CN(C(=O)c1snc(C(=O)NC2CCCCC2)c1N)c1ccccc1F,Potency,[1],"inconclusive [inhibitor, single point]"
Fc1ccc(CNC(=S)Nc2ccc(Cl)cc2)cc1,Potency,[1],"inconclusive [inhibitor, single point]"
Cc1cccc(Nc2nnc(SCC(=O)Nc3ccc(C(=O)O)cc3)s2)c1,Potency,[1],inactive
O=C1C=C(c2cc(C(F)(F)F)cc(C(F)(F)F)c2)C[C@@H](c2ccc3c(c2)OCO3)C1,Potency,[1],"inconclusive [inhibitor, single point]"
CC(=O)c1c(C)[nH]c(C(=O)NCCc2c[nH]c3ccccc23)c1C,Potency,[1],"inconclusive [inhibitor, single point]"
CCN(CC)C(=O)C1CCN(c2ncnc3c2cnn3-c2ccc(C)cc2C)CC1,Potency,[1],"inconclusive [inhibitor, single point]"
CCCCN(CCCNC(=O)c1cc(Nc2ccc(OC)cc2)nc2ccccc12)Cc1ccccc1,Potency,[1],active: 20.6 µM
O=C(N/N=C/c1cc(Br)cs1)c1c[nH]c2ccccc12,Potency,[1],"inconclusive [inhibitor, single point]"
CSc1ccc(S(=O)(=O)NCC(=O)OCC(=O)NCc2cccs2)cc1[N+](=O)[O-],Potency,[1],inactive
CC1(c2nnc(Cc3ccccc3)o2)CC(c2ccc(OC(F)(F)F)cc2)=NO1 (stereo unspecified),Potency,[1],"inconclusive [inhibitor, single point]"
CCOC(=O)c1ccc(N2C(=O)c3n[nH]c(-c4cccs4)c3C2c2ccc(CC)cc2)cc1 (stereo unspecified),Potency,[1],active: 14.6 µM
COc1cc(NC(=S)NCc2ccco2)cc(OC)c1,Potency,[1],inactive
O=S(=O)(Nc1ccc(F)c(Cl)c1)c1ccc(Br)s1,Potency,[1],"inconclusive [inhibitor, single point]"
O=C(CN1CCN(S(=O)(=O)c2ccc(F)cc2)CC1)NC1CC1,Potency,[1],inactive
Cc1ccc(S(=O)(=O)c2nc(S(=O)(=O)c3ccc(C)cc3)c(NCCCOC(C)C)s2)cc1,Potency,[1],"inconclusive [inhibitor, single point]"
O=C(NCc1ccccc1)C1=C[C@H](c2ccc(Br)cc2)C[C@H](OCc2ccc(CO)cc2)O1,Potency,[1],"inconclusive [inhibitor, single point]"
O=c1cnc2cnc(Oc3cccc(Cl)c3)nc2n1Cc1ccc(F)cc1,Potency,[1],"inconclusive [inhibitor, single point]"
Brc1cccc(CSc2nnc(-c3ccncc3)o2)c1,"activity change, negative = growth inhibition",[1],inconclusive: -32.1% [inhibitor]
O=C(Cc1ccccc1)NC(CSSCC(NC(=O)Cc1ccccc1)C(=O)O)C(=O)O (stereo unspecified),Potency,[1],inactive
O=c1c(S(=O)(=O)c2ccccc2)cn(Cc2ccc(F)cc2)c2cc(N3CCOCC3)c(F)cc12,Potency,[1],active: 20.6 µM
Cc1cc(/C=N/n2c(COc3ccccc3)nc3ccccc3c2=O)c(O)c([N+](=O)[O-])c1,Potency,[1],active: 16.4 µM
Cc1cccc(N2CCN(C(=O)Cn3ncc4c5ccccc5n(C)c4c3=O)CC2C)c1 (stereo unspecified),Potency,[1],"inconclusive [inhibitor, single point]"
COc1ccc(N2CCN(C(=O)[C@@H](NC(=O)c3cc(OC)cc(OC)c3)C(C)C)CC2)cc1,Potency,[1],active: 14.6 µM
O=C1c2ccncc2C(=O)N1CO,Potency,[1],inactive
CC1CCCCN1S(=O)(=O)c1ccc(S(=O)(=O)N2CCN(C)CC2)cc1 (stereo unspecified),Potency,[1],inactive
COc1ccc(CCNC(=O)CCCn2c(=O)c3ccccc3n(Cc3ccccc3C#N)c2=O)cc1OC,Potency,[1],inactive
Cc1ccc(NC(=S)NC(=O)c2ccc(Br)o2)c(C)c1,Potency,[1],"inconclusive [inhibitor, single point]"
CCCc1n[nH]c2c1/C(=N/O)CC(c1ccccc1)C2 (stereo unspecified),Potency,[1],"inconclusive [inhibitor, partial curve]"
O=C(Cn1ncc2c(=O)oc3ccccc3c21)NCc1cccnc1,Potency,[1],active: 1.3 µM
Cc1ccccc1-n1nc(CO)c(C(=O)NCC(c2ccccc2)c2ccccc2)n1,Potency,[1],"inconclusive [inhibitor, single point]"
C=CC[C@@H](CC(=O)N(CCO)Cc1ccccc1)C(=O)N[C@H](COC(=O)[C@H](CC=C)CC(=O)OC(C)(C)C)Cc1c[nH]c2ccccc12,Potency,[1],active: 23.1 µM
